Assay results as given in PubChem BioAssay (NCI).
Where “and” joins values, the source holds several entries; their conditions need not be identical. Equal values may be shown once.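 Values below derive from 48-hour exposures of cells grown in 96-well plates, with endpoints linearly interpolated between the two concentrations bracketing the appropriate inhibition level. GI50: concentration for 50% inhibition of growth. At the TGI there is no net growth.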

Each compound was assayed on NCI-H322M lung (assay: inhibition of tumour cell growth, NCI panel, 48 h).

`COc1cc(N2CCC(N(C)C)CC2)ccc1Nc1ncc(Cl)c(Nc2ccccc2P(C)(C)=O)n1` was tested, and the GI50 was 0.782 µM and 0.412 µM.

In the case of `COc1cc(N2CCC(N(C)C)CC2)ccc1Nc1ncc(Cl)c(Nc2ccccc2P(C)(C)=O)n1`, the TGI is reported as > 28.2 µM and 3.8 µM.
In the case of `CCCCCCC(C)CC(CCCCCC)NCCOC(=O)c1ccc([N+](=O)[O-])cc1` (stereo not given), the TGI is reported as 25.3 µM and 26.2 µM.

`COc1ccc(CCN2CCC(C#N)(c3ccc(OC)c(OC)c3)CC2)cc1OC` and `CCCOc1ccc(/C=C\c2cc(OC)c(OC)c(OC)c2)cc1` cannot be ordered by TGI: greater than 100 µM for the first, greater than 100 µM for the second.

`CC(=O)OC1[C@H]2c3cc4c(cc3CN3CCC(C[C@@H]1OC(C)=O)C23)OCO4` (stereo not given in full) and `CC[C@@]1(O)C(=O)NCc2c1cc1n(c2=O)Cc2cc3cc4c(cc3nc2-1)OCO4` cannot be ordered by TGI: greater than 75 µM for the first, greater than 84.8 µM for the second.

`O=C(CCN(CCO)CCO)Nc1ccc2c(c1)C(=O)c1ccc(NC(=O)CCN(CCO)CCO)cc1C2=O` and `Cc1cccc(C(C)(C)C)c1NC(=O)CC1C(=O)Nc2ccccc2S1=O` (stereo not given) cannot be ordered by TGI: greater than 100 µM for the first, greater than 100 µM for the second.

Going from `Cc1ccc2sc3cc(=O)cc(C)c-3nc2c1` to `Cc1ccc2c(ccc3c[n+]4ccccc4c(C)c32)c1`, the TGI falls from greater than 100 µM to 25.6 µM.

Going from `Clc1cc(Cl)cc(N2N=C(c3cccc(Nc4ccncc4)c3)CC2c2ccccc2)c1` (stereo not given) to `Oc1ccccc1C=Nc1ccc(Oc2ccc(Cl)cc2)c(Cl)c1`, the TGI rises from 3.4 µM to 80.4 µM (24-fold).

First: N#Cc1nc(-c2cccc(Br)c2)cc(-c2ccc(Nc3nc(N4CCCCC4)nc(N4CCCCC4)n3)cc2)c1N
Second: FC(F)(F)c1ccc2c(c1)N(CCCN1CCN(C3CC3)CC1)c1ccccc1S2
The TGI of the first is higher: greater than 100 µM for the first, 31.9 µM for the second.

Going from `CC(=O)OCC(=O)[C@@]1(O)[C@H](C)C[C@H]2[C@@H]3C=C(C)C4=Cc5c(cnn5-c5ccc(F)cc5)C[C@]4(C)[C@H]3[C@@H](O)C[C@@]21C` to `CCNC(=O)C(O)C1(O)CCC2[C@@H]3CCC4=CC(=O)C=C[C@]4(C)C3[C@@H](O)C[C@@]21C` (stereo not given in full), the TGI rises from 16.8 µM to greater than 100 µM.

`C[C@]12CC[C@H]3[C@@H](CCC4=CC(=O)CC[C@@H]43)[C@@H]1CC[C@@H]2OC1(O)C(=O)c2ccccc2C1=O` and `CC[C@@]1(O)C(=O)OCc2c1c(Cl)c1n(c2=O)Cc2cc3ccccc3nc2-1` cannot be ordered by TGI: greater than 100 µM for the first, greater than 67.8 µM for the second.

`C/C(=N\NC(N)=S)c1ccc2c(c1)OCO2` and `COc1ccc(NC=O)c(C(O)CCNC(C)=O)c1` (stereo not given) cannot be ordered by TGI: greater than 100 µM for the first, greater than 100 µM for the second.

Going from `COc1c(O)cc(/C=C/c2cc(O)cc3c2[C@@]2(C(=O)O3)c3c(O)cc(O)cc3OC2c2cccc(O)c2)cc1O` (stereo not given in full) to `CC1(C)CCSC(/C=C/c2ccccc2)=N1`, the TGI falls from greater than 100 µM to 31.5 µM.

First: CC(=O)/C=C1/c2ccccc2N(C(C)=O)C1O (stereo not given)
Second: CCCCCCCCCCCCCCCCC(C(=O)O)C(O)(CC(=O)O)C(=O)O (stereo not given)
The TGI of the first is higher: greater than 100 µM for the first, 35.2 µM for the second.

Compared with `Clc1cc(Cl)cc(N2N=C(c3cccc(Nc4ccncc4)c3)CC2c2ccccc2)c1` (stereo not given), `N#Cc1nc(-c2cccc(Br)c2)cc(-c2ccc(Nc3nc(N4CCCCC4)nc(N4CCCCC4)n3)cc2)c1N` is 4.1-fold higher in GI50: 1.68 µM for the first, 6.81 µM for the second.

Compared with `CC[C@@]1(O)C(=O)NCc2c1cc1n(c2=O)Cc2cc3cc4c(cc3nc2-1)OCO4`, `CC(=O)OCC(=O)[C@@]1(O)[C@H](C)C[C@H]2[C@@H]3C=C(C)C4=Cc5c(cnn5-c5ccc(F)cc5)C[C@]4(C)[C@H]3[C@@H](O)C[C@@]21C` is 1.5-fold higher in GI50: 3.19 µM for the first, 4.81 µM for the second.

Work on `FC(F)(F)c1ccc2c(c1)N(CCCN1CCN(C3CC3)CC1)c1ccccc1S2` yielded a GI50 of 16.7 µM.
